# In the supplement of paper PMC11417369:
# ± gives the standard deviation of the averaged measurements. The list shows a part of the results.
# Tested on: PfAP2-LT AP2 domain (GST-tagged)
# Test: gcPBM binding intensity (ln(normalized median fluorescence intensity)); higher = stronger DNA binding
# Method in brief: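 Each value is the highest Masliner-normalised natural-log median intensity across replicate spots of either orientation of a probe. The probes were primer-extended double-stranded 36-bp intergenic genomic sequences on an Agilent 4 × 180k array, alongside negative controls, exposed for 1 h to GST-tagged P. falciparum DNA-binding domains expressed in E. coli. Bound protein was picked up with Alexa488 anti-GST antibody and scanned at 488 nm.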
row,Sequence,gcPBM binding intensity (ln)
1,CGGACATACTAACGGACACACGTAAGAAAAAAAAAG [CACACA_site4504],9.05 ± 0.64
2,ATGCACGGAAAAATATGTACTTAATTTCAATAATAT [XGTACX_site8311],8.79 ± 0.45
3,TATATGTCCATATTTCCACACACATATTATTTTTAT [CACACA_site9266],9.33 ± 0.41
4,AGAGAGAACGGTATAACATGCGATAAATTTTAGAAG [TGCATGCA_site357],8.97 ± 0.58
5,TTTTTTCAATAAATAATCGTATATTGAATAATAATA [CACACA_negctrl_site822],8.07 ± 0.37
6,TATTAATTTTTCCTTTTTTTTTTACCCCTTTGTACA [CACACA_negctrl_site947],8.53 ± 0.63
7,ATATATTATATTATATGTACTTAAAAAAGTGCAAAG [XGTACX_site318],8.55 ± 0.47
8,TATATTCAATTTTTGGTGCGTAAATTAATACAAACA [GTGCAC_site9764],8.43 ± 0.39
9,AAATAATACATTCGTACTACACATATATATTAAATA [XGTACX_site7806],8.79 ± 0.42
10,AATATATACATATATACACACACATATATATATATA [CACACA_site8907],9.77 ± 0.014
11,TAAAATGTTATAAGAACATGCAATTCCTTTTATTAT [TGCATGCA_site408],8.4 ± 0.44
12,ATTTTAATTTTGTATACACACATTTGAATTATTAAT [CACACA_site3528],9.05 ± 0.45
13,ATATATTATATATGCGCACACACGAATTTTTTTTTT [CACACA_site2393],9.31 ± 0.4
14,ATTAAAGTTATAAATTCACACATGTAAATGTATTTA [CACACA_site5279],8.67 ± 0.33
15,GATAAATATTTAATATGTACATATATTATATATATA [XGTACX_site117],8.71 ± 0.41
16,GTTATATATGATGGAAGCACTTGGAAGAGGGAAATA [CACACA_negctrl_site1831],8.79 ± 0.46
17,AAAAATAAAAAAATAAAAAATAAAAAAATAAAAAAT [CACACA_negctrl_site1425],8.72 ± 0.54
18,TATATACACACCGTGTGTACATATACATTAACTGAA [XGTACX_site7120],9.61 ± 0.23
19,TATATATACATACGTACACACAAATATTAAAATATA [CACACA_site1951],8.99 ± 0.45
20,TCAAAATTGCTTTGTTGTACTAATAAAATTTATTAC [XGTACX_site1121],8.61 ± 0.35
21,TATCTGTAAACATATTCACACACATAAATTCGCATA [CACACA_site8557],9.28 ± 0.33
22,TATATATATATAATATGTACATATATACATGCCTTG [XGTACX_site2791],9.09 ± 0.3

row,Sequence,gcPBM binding intensity (ln)
1,TACACTAATGACAGTTGTACTTTTATTCGATAGAAT [XGTACX_site738],8.64 ± 0.49
2,TCGAAAATGACGAATGGTACAGTATGTATAAAAATA [XGTACX_site1258],8.87 ± 0.53
3,ACTTTTTTTTTGTGTGTGCACTCGATTATATACATA [GTGCAC_site9846],9.57 ± 0.46
4,ATGGCATAAATATATGCACACACAAAAAAAAAAAAA [CACACA_site7902],9.29 ± 0.51
5,AAAAAGAAAAAGAGCACACAAAAATATTTAACCTTT [CACACA_site2747],8.99 ± 0.51
6,TTTCTTTTTTTTTGAAGTACATAAAAATATAAAAAA [XGTACX_site311],7.96 ± 0.33
7,ATATATATATGTATGTATATATATATATATATGTTT [CACACA_negctrl_site248],9.08 ± 0.34
8,AATATTATAAAATATTGTACTTAAAAAATTATTAAA [XGTACX_site2469],8.37 ± 0.49
9,TAAATTTTTTCTTTTTGTACATATTTTAAAAATGTT [XGTACX_site7526],8.54 ± 0.57
10,TTTTATTCCGTTTCAAAATAAGAAAAAAAAAAAAAT [CACACA_negctrl_site1199],8.22 ± 0.43
11,TACTTCTCATTTGTTGTTGTATTTTAGGCATACCCT [XGTACX_negctrl_site385],8.88 ± 0.59
12,TAAATATAATAAAAGTGTACTTACACTTACATATAA [XGTACX_site1206],8.55 ± 0.57
13,TTTCACACTATTTCATGTACACATAAAATTATATAT [XGTACX_site8692],8.83 ± 0.42
14,AACAGATAAAAGGGTACACACATATATACATGTACA [CACACA_site225],9.23 ± 0.44
15,TTGTATATATTTCCTTGTACGTAATAATTCTTATTG [XGTACX_site3938],8.82 ± 0.38
16,ATATAATAAGGTTAAGCACACATATTACATATATAA [CACACA_site9110],8.93 ± 0.47
17,AAGGATAATAGGTACACATGCAATATTCATATATAC [TGCATGCA_site523],9.13 ± 0.3
18,CTTATATATACGTGCACACATATATATAAGATATAT [CACACA_site1752],9.04 ± 0.29
19,ATTTAAAAAAAAAAAAATAAATAACTTGAAAAACAA [GTGCAC_negctrl_site318],8.3 ± 0.4
20,AAAAATATAAATGACACACACTTAAAAACAAAGAAA [CACACA_site4540],9.28 ± 0.45
21,ACGTATATTTTTACATGTACATATGTAAAAAATTTT [XGTACX_site4587],8.7 ± 0.32
22,TGTTTTTCATAGTGCACACATAACCAAAAATAGTAT [CACACA_site3150],8.97 ± 0.34

row,Sequence,gcPBM binding intensity (ln)
1,AAATAATATATATACACACACACATATATATATACA [CACACA_site554],9.71 ± 0.13
2,TTATGATAATTTTGCACACACTTAGGAAAAATTATG [CACACA_site4949],8.99 ± 0.4
3,AAATACTGTACAAAGGTGCATAAAAAGTGGGGCATA,9.13 ± 0.48
4,TCAAAAGAAATAAAAACATGCATAAAAGTAAAAATA [TGCATGCA_site832],8.89 ± 0.45
5,AATAATGAAAAATCAAATAACCTAAATTACAACTGT [XGTACX_negctrl_site65],8.82 ± 0.41
6,TTTTATTTATCATACACACACAGAAAAAAAAAAAAA [CACACA_site158],8.89 ± 0.32
7,GAATGTTTATTATATGCATGTTATATATATGAATAT [TGCATGCA_site4],8.85 ± 0.32
8,CCTTTCCTTTTATAAGTGCATATAACAAATGTATAC [GTGCAC_site9872],8.72 ± 0.35
9,TTTTTTTTTCTTTCTTTCTTTTGTAAAAACCTCAAA [CACACA_negctrl_site723],8.26 ± 0.55
10,ATATGTATATATAAAAGTACGCGTAAAAAAAAAAAA [XGTACX_site5377],9.34 ± 0.42
11,TCTTTTTATATTTATTGTACATAAAAAATAAAACAT [XGTACX_site4073],8.41 ± 0.35
12,TATAAACCAATGAACACACAAACATATATATATATA [CACACA_site3168],9.88 ± 0.38
13,TAAATATATAAATACACACACATACACAAAAAAAAA [CACACA_site5890],9.68 ± 0.27
14,TATACACCCTAAAATACACACACACCCACCCATATA [CACACA_site9380],10.06 ± 0.078
15,TATTAATTCTTAAATTTTTTTTTTTAATTCCTAGGA [CACACA_negctrl_site879],8.02 ± 0.53
16,ACAACATTTCTCAAATGTACATAATATAATTTATAT [XGTACX_site3224],8.71 ± 0.39
17,TATATATAATACAGTATGCACTATTTTTATTAAAAA,8.4 ± 0.47
18,CAATAATTTTTTAAATGTACTTTATTATAATTTAAT [XGTACX_site135],8.32 ± 0.46
19,GAATGAATCAATGTTTGTACTCAACAAATTATAAGG [XGTACX_site5122],8.73 ± 0.43
20,GCCTTCCTTCTAAATGCACACGGAAAGTATAAATGT [CACACA_site8797],9.04 ± 0.31
21,GTCTAACAACCAAACGCACACACACTAATAAAAAAA [CACACA_site8026],9.71 ± 0.35
22,TTTTCTTACATCTTATAAAAAAAAATATATATTATA [GTGCAC_negctrl_site118],7.96 ± 0.51

row,Sequence,gcPBM binding intensity (ln)
1,TTATATACATAAAAATGTACTTTTTATAAAATATAT [XGTACX_site8281],8.38 ± 0.37
2,AAGTTAGTATTCTGCTGTACTTCTATATATAAGTGT [XGTACX_site7678],8.87 ± 0.4
3,ATAAAATAATCTTATGCACACCAAAAATTTATATAA [CACACA_site8332],8.79 ± 0.41
4,ATATATCAAAAATGATGACATAAATATATTAATTTA [TGCATGCA_negctrl_site259],8.56 ± 0.47
5,TTTTTGTAAAATAAACGTACAAAACAATTGTTCATT [XGTACX_site6537],8.51 ± 0.45
6,TATCTGTATGTATGTACACACAAAAAATGGAATATA [CACACA_site5947],9.2 ± 0.45
7,TATTTTAAAACAAAAATATAATTTCATAAAAATATA [CACACA_negctrl_site394],8.06 ± 0.45
8,TAATATATATATTTATGTACATATAAATTTTCTCCT [XGTACX_site4496],8.65 ± 0.41
9,AAAAAAAAAAAAAGCACACATATAAATATGAATAAA [CACACA_site1393],8.79 ± 0.59
10,AAAAAAAAAAAAAACACACACATACACCCAAAAATG [CACACA_site4223],9.66 ± 0.24
11,ATATACACACAAAAACGTACACATATATATATGTAT [XGTACX_site2673],9.48 ± 0.44
12,GGTATAATAATATATAGTACACACAAAAATGGAAGT [XGTACX_site7058],9.3 ± 0.35
13,ACAATAAAGAAGTGTACACATATATCAATAAAAAAA [CACACA_site5228],8.96 ± 0.59
14,AAAATAATATTTAATACACACATAATTTTAATATAA [CACACA_site4588],8.67 ± 0.42
15,AAAAAAAAAAAAAAAAAAAAAAAAATATATAATTTA [CACACA_negctrl_site583],8.45 ± 0.14
16,CAATCATGGGTTTACACACACATGCATGTGAAAATT [CACACA_site1349],9.36 ± 0.36
17,ATTTTTGCAGTAATTAAATAGACAAAATGAAAAAAA [CACACA_negctrl_site1537],8.59 ± 0.49
18,GATGATAATAAATTTATATATAATATTATCTTATGT [GTGCAC_negctrl_site672],8.58 ± 0.45
19,CATATTAAAAATTATTGTACATATTAATGAATATAA [XGTACX_site2734],8.4 ± 0.49
20,AACCAAACAAATAAACGTACAAACATTACATATATT [XGTACX_site2265],9.04 ± 0.49
21,TATTTATAAACATACGCACACATTAAAATATATATA [CACACA_site6051],9.02 ± 0.4
22,ATATATATATATATAGTGCATAAAATAAGTTTCTAA,9.05 ± 0.42
